Results on 15 variants are retold here after the supplement of paper PMC11125491.

To fix the notation:
B1: UniProt A0EPZ9; numbered along this chain (parent)
chain: MDWQKSLTLIVALTLSRGIGLKNDLPWKLKSDMMFFSRVTSGLLVTRSTGQMNVVLMGRKTWESLPAHSRPLKNRINVVISRQEVLDLGGGAYHARSLDDALALLSQIYDSTSKIQLNRVFVIGGGELCKAAMEHSRLNRIIATVIHNEVDCDVFFPIDFRSSQSCLPWRKQDHSVLEAWVGSKVPQGKINENGFIYEFEMWIRDI

Variants of B1 are the subject of this data set. Nature of the data set: selection coefficient against synonymous wild-type codons (log2 per generation); higher = faster growth than wild type. The note with it: with Saccharomyces cerevisiae carrying the variant on a plasmid. The procedure:
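Pooled growth of yeast carrying single-residue variants of P. jirovecii dihydrofolate reductase (own DFR1 gene intact), two passages at 30 °C, three cultures, sequenced before and after. Codons with under 15 starting reads are left out; codons of one change are averaged.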

± gives the standard deviation of the averaged measurements. Growth of baker's yeast expressing single-residue variants of Pneumocystis jirovecii dihydrofolate reductase in 8.8 or 44 µM methotrexate (about 75% and 90% inhibition of the wild type). Selection coefficient per generation; 0 = like wild type, above 0 = less sensitive, below 0 = more sensitive or loss of function. No active / inactive call per row; the paper calls resistant above 0.220 (8.8 µM) or 0.243 (44 µM) together with a significance test. At 44 µM about 15% of codons end with one read or none, so the lowest values are floors (replicate rank correlation 0.74; 0.94 at 8.8 µM).

MDWQKSLTLIVALTLSRGIGLKNDLPWKLKSDMMFFSRVTSGILVTRSTGQMNVVLMGRKTWESLPAHSRPLKNRINVVISRQEVLDLGGGAYHARSLDDALALLSQIYDSTSKIQLNRVFVIGGGELCKAAMEHSRLNRIIATVIHNEVDCDVFFPIDFRSSQSCLPWRKQDHSVLEAWVGSKVPQGKINENGFIYEFEMWIRDI [L43I]: the “selection coefficient against synonymous wild-type codons (log2)” value (“selection coefficient … (log2)” for short) reads like this: (methotrexate 8.8 µM) -0.16 ± 0.052; (methotrexate 44 µM) -0.143 ± 0.11.
MDWQKSLTLIVALTLSRGIGLKNDLPWKLKSDMMFFSRVTSGLLLTRSTGQMNVVLMGRKTWESLPAHSRPLKNRINVVISRQEVLDLGGGAYHARSLDDALALLSQIYDSTSKIQLNRVFVIGGGELCKAAMEHSRLNRIIATVIHNEVDCDVFFPIDFRSSQSCLPWRKQDHSVLEAWVGSKVPQGKINENGFIYEFEMWIRDI [V45L]: the “selection coefficient … (log2)” value by setting is: (methotrexate 8.8 µM) -0.0367 ± 0.084; (methotrexate 44 µM) -0.121 ± 0.14.
MDWQKSLTLIVALTLSRGIGLKNDLGWKLKSDMMFFSRVTSGLLVTRSTGQMNVVLMGRKTWESLPAHSRPLKNRINVVISRQEVLDLGGGAYHARSLDDALALLSQIYDSTSKIQLNRVFVIGGGELCKAAMEHSRLNRIIATVIHNEVDCDVFFPIDFRSSQSCLPWRKQDHSVLEAWVGSKVPQGKINENGFIYEFEMWIRDI [P26G]: the “selection coefficient … (log2)” value (methotrexate 8.8 µM) was determined as 0.184 ± 0.038 and the “selection coefficient … (log2)” value (methotrexate 44 µM) was found to be 0.17 ± 0.053.
Regarding MDWQKSLTLIVALTLSRGIGLKNDLPWKLKSDMMFFSRVTSGLLVTRSTGQMNVVLMGRKTWESLPAHSRPLKNRINVVISRQEVLDLGGGAYHAESLDDALALLSQIYDSTSKIQLNRVFVIGGGELCKAAMEHSRLNRIIATVIHNEVDCDVFFPIDFRSSQSCLPWRKQDHSVLEAWVGSKVPQGKINENGFIYEFEMWIRDI [R96E], the “selection coefficient … (log2)” value runs as follows: (methotrexate 8.8 µM) -0.327 ± 0.047; (methotrexate 44 µM) -0.257 ± 0.04.
In the case of MDWQKSLTLIVALTLSRGIGLKNDLPWKLKSDMMFFSRVTSGLLVTRSTGQMNVVLMGRKTWESLPAHSRPLKNRINVVISRQEVLDLGGGAYHARSLDDALALLSQIYDSTSKIQLNRVFVIGGVELCKAAMEHSRLNRIIATVIHNEVDCDVFFPIDFRSSQSCLPWRKQDHSVLEAWVGSKVPQGKINENGFIYEFEMWIRDI [G126V], the “selection coefficient … (log2)” value amounted to 0.529 ± 0.028 (methotrexate 8.8 µM) and 0.765 ± 0.051 (methotrexate 44 µM).
For MDWQKSLTLIVALTLSRGIGLKNDLPWKLKSDMMFFSRVTSGLLVTRSTGQMNVVLMGRKTWESLPAHSRPLKNRINVVISRQEVLDLGGGAYHARSLDDALALLSQIVDSTSKIQLNRVFVIGGGELCKAAMEHSRLNRIIATVIHNEVDCDVFFPIDFRSSQSCLPWRKQDHSVLEAWVGSKVPQGKINENGFIYEFEMWIRDI [Y109V], in that order: 0.0576 ± 0.039 and 0.119 ± 0.099.
Regarding MDWQKSLTLIVALTLSRGIGLKNDLPWKLKSDMMFFSRVTSGLLVTRSTGQMNVVLMGRKTWESLPAHSRPLKNRINVVISRQEVLDLGGGAYHARSLDDALALLSQIYDSTSKIQLNRVFVIGGGELCKAAMEHSRLNRIIATVIHNEVDCDVFFPIDFRSSQSCLPWRKQDHSVLEAWVRSKVPQGKINENGFIYEFEMWIRDI [G182R], the “selection coefficient … (log2)” value (methotrexate 8.8 µM) was -0.17 ± 0.068 and the “selection coefficient … (log2)” value (methotrexate 44 µM) was -0.179 ± 0.28.
Consider MDWQKSKTLIVALTLSRGIGLKNDLPWKLKSDMMFFSRVTSGLLVTRSTGQMNVVLMGRKTWESLPAHSRPLKNRINVVISRQEVLDLGGGAYHARSLDDALALLSQIYDSTSKIQLNRVFVIGGGELCKAAMEHSRLNRIIATVIHNEVDCDVFFPIDFRSSQSCLPWRKQDHSVLEAWVGSKVPQGKINENGFIYEFEMWIRDI [L7K], for which the “selection coefficient … (log2)” value runs as follows: (methotrexate 8.8 µM) -0.497 ± 0.092; (methotrexate 44 µM) -0.377 ± 0.021.
For the variant MDWQKSLTLIVALTLSRGIGLKNDLPWKLKSDMMFFSRVTSGLLVTRSTGQMNVVLMGRKTWESLPAHSRPLKNRINVVISRQEVLDLGGGAYHARSLDDALALLSQIYDSTSKIQLNRVFVIGGGELCKAAMEHSRLNRIIATVIHNEVDCDVFFPIDCRSSQSCLPWRKQDHSVLEAWVGSKVPQGKINENGFIYEFEMWIRDI [F160C], the “selection coefficient … (log2)” value runs as follows: (methotrexate 8.8 µM) 0.346 ± 0.032; (methotrexate 44 µM) 0.3438 ± 0.002.
Consider MDWQKSLTLIVALTLSRGIGLKNDLPWKLKSDMMFFSRVTSGLLVTRSTGQMNVVLMGRKTWESLPAHSRPLKNRINVVISRQEVLDLGGGAYHARSLDDALALLSQIYDSTSKIQLNRVFVIGGGELCKAAMEHSRLNRIIATVIHNEVDCDVFFPIDMRSSQSCLPWRKQDHSVLEAWVGSKVPQGKINENGFIYEFEMWIRDI [F160M], for which the “selection coefficient … (log2)” value by setting is: (methotrexate 8.8 µM) 0.184 ± 0.051; (methotrexate 44 µM) 0.125 ± 0.053.
Consider MDWQKSLTLIVALTLSRGIGLKNDLPWKLKSDMMFFSRVTSGLLVTRSTGQMNVVLMGRKTWESLPAHSRPLKNRINVVISRQEVLDLGGGAYHARSLDDALALLSQIYDSTSKIQLNRVFVIGGGELCKAAMEHSRLNRIIATVIHNEVDCDVFFPIDFRSSQSCLPWRKQDHSVLEADVGSKVPQGKINENGFIYEFEMWIRDI [W180D], for which the “selection coefficient … (log2)” value (methotrexate 8.8 µM) stood at 0.149 ± 0.045 and the “selection coefficient … (log2)” value (methotrexate 44 µM) was 0.0655 ± 0.086.
As to MDWQKSLTLIVALTLSRGIGLKNDLPWKLKSDMMFFSRVTSGLLVTRSTGQMNVVLMGRKTWESLPAHSRPLKNRINVVISRQEVLDLGGGAYHARSLDDALALLSQIYDSTSKIQLNRVFVIGGGELCKAASEHSRLNRIIATVIHNEVDCDVFFPIDFRSSQSCLPWRKQDHSVLEAWVGSKVPQGKINENGFIYEFEMWIRDI [M133S], the “selection coefficient … (log2)” value is -0.151 ± 0.052 (methotrexate 8.8 µM) and -0.186 ± 0.12 (methotrexate 44 µM).
For MDWQKSLTLIVALTLSRGIGLKNDLPWKLKSDMMFFSRVTSGLLVTRSTGQMNVVLMGRKTWESLPAHSRPLKNRINVVISRQEVLDLGGGAYHARSLDDALALLSQIYDSTSKIQLNRVFVIGGGELCKAAMEPSRLNRIIATVIHNEVDCDVFFPIDFRSSQSCLPWRKQDHSVLEAWVGSKVPQGKINENGFIYEFEMWIRDI [H135P], in that order: -0.553 ± 0.25 and -0.124 ± 0.22.
MDWQKSLTLIVALTLSRKIGLKNDLPWKLKSDMMFFSRVTSGLLVTRSTGQMNVVLMGRKTWESLPAHSRPLKNRINVVISRQEVLDLGGGAYHARSLDDALALLSQIYDSTSKIQLNRVFVIGGGELCKAAMEHSRLNRIIATVIHNEVDCDVFFPIDFRSSQSCLPWRKQDHSVLEAWVGSKVPQGKINENGFIYEFEMWIRDI [G18K]: the “selection coefficient … (log2)” value was 0.0383 ± 0.066 (methotrexate 8.8 µM) and 0.0387 ± 0.11 (methotrexate 44 µM).
Taken in the same sequence, the figures for MDWQKSLTLIVALTLSRGIGLKNDLPWKLKSDMMFFSRVTSGLLVTRSTGQMNVVLMGIKTWESLPAHSRPLKNRINVVISRQEVLDLGGGAYHARSLDDALALLSQIYDSTSKIQLNRVFVIGGGELCKAAMEHSRLNRIIATVIHNEVDCDVFFPIDFRSSQSCLPWRKQDHSVLEAWVGSKVPQGKINENGFIYEFEMWIRDI [R59I] were 0.243 ± 0.024 and 0.285 ± 0.008.
